From PMC5827659 (2018)

B1: OASFext L251S (STIM1 […] L251S) (domain or fragment)
chain: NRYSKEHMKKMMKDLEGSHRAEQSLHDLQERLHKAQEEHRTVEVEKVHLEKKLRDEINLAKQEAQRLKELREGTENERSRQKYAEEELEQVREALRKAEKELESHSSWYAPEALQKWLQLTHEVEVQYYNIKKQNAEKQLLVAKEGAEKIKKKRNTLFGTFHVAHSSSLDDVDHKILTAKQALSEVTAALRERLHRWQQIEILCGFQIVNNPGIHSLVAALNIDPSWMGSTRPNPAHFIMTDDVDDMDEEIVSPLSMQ
B2: OASFext R304W (STIM1 […] R304W) (domain or fragment)
chain: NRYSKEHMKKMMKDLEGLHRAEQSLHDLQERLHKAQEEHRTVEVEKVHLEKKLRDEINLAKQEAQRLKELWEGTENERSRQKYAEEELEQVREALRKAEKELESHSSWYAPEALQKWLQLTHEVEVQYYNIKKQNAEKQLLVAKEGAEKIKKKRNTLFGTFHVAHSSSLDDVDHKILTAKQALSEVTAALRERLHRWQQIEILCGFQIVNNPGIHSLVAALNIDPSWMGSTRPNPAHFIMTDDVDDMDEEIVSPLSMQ
B3: OASFext (extended OASF fragment, STIM1 […]) wild type (domain or fragment)
chain: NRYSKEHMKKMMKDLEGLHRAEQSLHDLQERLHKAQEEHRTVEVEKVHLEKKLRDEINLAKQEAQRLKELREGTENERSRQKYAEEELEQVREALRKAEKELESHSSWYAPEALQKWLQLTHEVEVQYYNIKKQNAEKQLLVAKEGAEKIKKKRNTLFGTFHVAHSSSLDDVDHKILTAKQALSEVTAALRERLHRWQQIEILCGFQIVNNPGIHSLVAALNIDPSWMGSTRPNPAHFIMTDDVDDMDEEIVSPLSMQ

Columns and labels:
AUC; monomer-dimer = biological target: the molecule itself; experiment: AUC; monomer-dimer
AUC; dimer-tetramer = biological target: the molecule itself; experiment: AUC; dimer-tetramer

| Protein | Kd (AUC; monomer-dimer) [nM] | Kd (AUC; dimer-tetramer) [nM] |
| --- | --- | --- |
| B1 | 570 | 181000 |
| B2 | 550 | – |
| B3 | 850 | – |
